Test results taken from the supplement of paper PMC3334620.
The full ranking holds about 33,000 sequences; the median of “E-score (-0.5 to 0.5)” is about -0.01, and the highest 2% start at about 0.26. The list shows a part of the results.

target: Ste12 (UniProt P13574); assay: PBM E-score (8-mer binding enrichment) (E-score (-0.5 to 0.5)); higher = stronger / more preferred TF binding; most listed sequences are background and not binding sites; details: protein concentration: 200 nM; construct: GST-DNA-binding domain
Outline: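 Yeast transcription factors, full-length or as DNA-binding domains, were expressed with a GST tag using PURExpress in vitro transcription/translation. At about 100-200 nM they were applied to universal all-10-mer Agilent arrays, double-stranded by primer extension on fresh or once-stripped slides. Fluorescent anti-GST detected bound protein, and masliner normalised the scans. E-scores for ungapped eight-base words, pooled with reverse complements, came from the Universal PBM Analysis Suite.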

| Sequence | PBM E-score |
| --- | --- |
| CGAAAGGC | 0.0466 |
| GACAGGCC | -0.136 |
| CAGTAACG | 0.0492 |
| TACCTCGA | 0.0326 |
| TCCCATAA | -0.00138 |
| AACACAGT | 0.0143 |
| GCAGAGGA | -0.162 |
| GGGCTGGA | -0.0197 |
| CGTTCAAG | -0.146 |
| ACAGTGGC | -0.145 |
| AGCCCCAC | -0.0574 |
| AAACTCGC | 0.0875 |
| AAGAGATC | -0.0503 |
| CATCTACG | -0.0169 |
| AGGTGCTC | -0.196 |
| CCACTTAA | -0.0622 |
| ACAGTTGC | -0.0387 |
| ATTTACCA | 0.0862 |
| CCGCTTCC | 0.102 |
| CCCTGCAC | -0.098 |
| GCATTAGA | -0.0431 |
| GCGCCGAC | 0.00467 |
| CTACGGAA | -0.17 |
| AACTTGAC | 0.0624 |
| TATGCCAA | -0.0467 |

| Sequence | PBM E-score |
| --- | --- |
| CCGGTGAA | 0.00286 |
| CGGAGCTA | -0.0707 |
| AGGTGGCA | 0.00346 |
| AGTGGAGC | -0.23 |
| ATAAATCA | 0.138 |
| AAAGCCTC | -0.0838 |
| AGGGAGTC | -0.25 |
| AAGGTCGT | 0.0159 |
| GGATACCA | 0.00755 |
| GATACCGA | -0.124 |
| GAGAGTAC | -0.168 |
| ATTTGGCA | 0.0883 |
| GAGACTCA | -0.0789 |
| CCACCGCC | 0.0871 |
| CCGTAGCC | -0.159 |
| ACTTACTG | 0.0461 |
| CAATTGAC | -0.0478 |
| CTCGAACA | 0.0163 |
| ACCGACCG | 0.0445 |
| AGTTCTAC | -0.141 |
| CCATTGCA | 0.0632 |
| AGGGGCTG | -0.0133 |
| ATTTCTTC | 0.197 |
| ACTCATGG | 0.0624 |
| GCCTGTTA | 0.00489 |

| Sequence | PBM E-score |
| --- | --- |
| AGATGAAG | 0.102 |
| GGCAACCA | 0.00348 |
| GCCGCCAC | -0.165 |
| CTGCAAAG | -0.182 |
| GGGGAGCA | -0.0606 |
| AACCGGAG | -0.0395 |
| ATGGTTAG | 0.0246 |
| CTCCACAC | -0.0639 |
| GCAAATCC | 0.0928 |
| AGCATCCA | -0.0732 |
| CGGTAATC | -0.00049 |
| CTATCCTA | -0.0599 |
| GGCTAGAC | -0.282 |
| CGGCAACG | -0.198 |
| CAGCTAAG | -0.282 |
| CTGAAGTA | 0.00063 |
| ACAACGTG | -0.123 |
| CCAGTTAG | -0.183 |
| CTGCCCAG | -0.235 |
| CTGCTTAA | 0.0206 |
| AAATACCC | 0.127 |
| TATGGCAA | -0.0727 |
| CCTATCTC | -0.0405 |
| CTGGAGCA | -0.15 |
| GACGGCTC | -0.225 |

| Sequence | PBM E-score |
| --- | --- |
| AGCGACAA | -0.05 |
| AAGGTTTG | 0.0426 |
| CTTCTGCC | -0.122 |
| GTTTGGCA | -0.161 |
| AAGCTTGT | 0.0524 |
| GCCGTCAA | -0.128 |
| CGAGCTTA | -0.133 |
| CCTGATCC | -0.121 |
| AAGTTCGA | 0.0302 |
| ATGGAGGC | 0.00738 |
| CATACAGA | 0.0517 |
| ATGCCTGC | 0.0448 |
| CTACGTAA | -0.0603 |
| CCAAGCTC | -0.0202 |
| CACAATAA | 0.0136 |
| CAGTATTC | -0.0651 |
| TGTGCCAA | 0.0192 |
| GCCAAACA | 0.00409 |
| CCTGACAG | 0.01 |
| GCCGCACC | 0.00805 |
| ACAAATTC | 0.127 |
| CAATCGGC | -0.114 |
| AGTCAACT | -0.0152 |
| CTAGTGCA | -0.0737 |
| CTGTACGC | -0.169 |

| Sequence | PBM E-score |
| --- | --- |
| GCCGAAAA | 0.148 |
| CTATCGAC | -0.104 |
| ACAGTACT | -0.0965 |
| CTCCCGTC | 0.0578 |
| AGGGCTCA | -0.0959 |
| AATCGGGA | 0.06 |
| GCTCGGCC | -0.144 |
| GCAAAGCA | -0.148 |
| TAGAGCAA | -0.13 |
| ATTCGAAG | -0.0567 |
| AGCTAAAA | 0.0939 |
| ATGGCATG | 0.00737 |
| TCTTTACA | 0.18 |
| CATTTTAG | 0.267 |
| CGCTCCAC | -0.168 |
| ACAGCCTC | -0.0599 |
| CCCTTCAC | -0.0106 |
| GGTTCGTA | 0.105 |
| CTGCCGTA | -0.0935 |
| GCACCATA | 0.0607 |
| TATCACAA | 0.0811 |
| CTTTTGTC | -0.0993 |
| GGTACTCA | 0.0166 |
| ATAGCGAT | 0.00738 |
| GGTCGAAA | 0.0102 |

| Sequence | PBM E-score |
| --- | --- |
| GACCCTAC | -0.143 |
| AGGGCCTC | -0.208 |
| CGCGGTAA | 0.0922 |
| AAGGCTGT | -0.111 |
| AGGGCGGA | -0.248 |
| ACCAAGTG | -0.146 |
| AGGGACTC | -0.236 |
| TAACGATA | 0.138 |
| CGTGTCCA | -0.139 |
| AGAACCTG | -0.0635 |
| ATGTCGTA | -0.223 |
| GATTAAAC | 0.163 |
| TATGCCGA | 0.033 |
| AATGGTGT | 0.198 |
| ATATTTCC | 0.191 |
| CCTGTCCC | -0.147 |
| CAGCTCAG | -0.13 |
| TGATCGAA | 0.0482 |
| GTCGGCGA | -0.067 |
| ATTTATCG | 0.122 |
| CGAGTGCC | -0.147 |
| AACAAGGA | 0.0952 |
| GGAGCTCC | 0.0101 |
| CCTGGGCG | -0.153 |
| ACGGAAAC | 0.0829 |

| Sequence | PBM E-score |
| --- | --- |
| ACCTGGCC | -0.0394 |
| CATATACG | -0.0278 |
| ACCGTTAA | -0.0702 |
| GAGTTTGA | 0.0997 |
| CACGATAA | 0.241 |
| CATGCCGC | 0.0464 |
| CGTTCATA | 0.031 |
| CAACCTGA | 0.0598 |
| GATCGCGC | 0.0163 |
| TCCCTAGA | -0.0265 |
| GGTCGGCA | -0.124 |
| AAGAGGCT | -0.244 |
| ACATCTTC | 0.261 |
| GAACCCCA | 0.0411 |
| CGACTAAC | -0.163 |
| AGGTTGTG | -0.108 |
| ATGGCCGC | -0.0598 |
| CACGTAGA | 0.0937 |
| CGTTTGGC | -0.0549 |
| ACCGATGA | 0.0108 |
| ATACAACC | 0.043 |
| CCCATTCA | 0.143 |
| ACTTGAAA | 0.314 |
| TGAAATCA | 0.13 |
| CCGGGTCA | 0.0537 |

| Sequence | PBM E-score |
| --- | --- |
| CAGAAAGA | 0.0987 |
| CACATTTA | 0.084 |
| CCTAGCTA | -0.202 |
| GCATACTA | -0.0607 |
| CCTACCAG | -0.0291 |
| CTCTCGAC | -0.245 |
| GCGATTCA | 0.0308 |
| AGCTGATC | 0.0736 |
| AAAACATG | 0.324 |
| CAGTTACA | 0.0929 |
| ACGCTCAG | -0.0524 |
| GCAGGGCA | -0.147 |
| AGCATAAT | 0.153 |
| GCCCTCTA | -0.139 |
| GCCAGTCA | 0.0126 |
| ACTCAGTC | -0.0437 |
| CGATGACG | -0.259 |
| GCAAGAGC | -0.0662 |
| GAATCCCC | -0.00136 |
| CACATCCG | -0.00707 |
| AAGGACCT | -0.0446 |
| CGGTTAAG | -0.0649 |
| AGTGAATC | -0.0865 |
| CCGATCTC | -0.136 |
| CGGTACAG | -0.0316 |

| Sequence | PBM E-score |
| --- | --- |
| CAACGATC | -0.00727 |
| TCAACGGA | 0.0189 |
| TAGTGGCA | -0.066 |
| AAAGGCAG | 0.0859 |
| AGTCGAGA | -0.104 |
| ATCATCGA | 0.0173 |
| TACGCAAA | -0.0817 |
| ATAGAACG | 0.0923 |
| ATGACTAG | -0.183 |
| AGGAGCGA | 0.0152 |
| ATTGGTCA | 0.136 |
| ATCCGGCA | -0.0625 |
| AATTAGAC | 0.227 |
| CACTGTGA | 0.193 |
| CTCTTGAA | -0.0612 |
| CGACGGGA | 0.0944 |
| AGTAGTAA | 0.0453 |
| AGATATCG | -0.114 |
| AGGGACCG | -0.192 |
